Reference: ChEMBL document CHEMBL4888484, “Replenishing the malaria drug discovery pipeline: Screening and hit evaluation of the MMV Hit Generation Library 1 (HGL1) against asexual blood stage Plasmodium falciparum ,using a nano luciferase reporter read-out” (2022)
Screen size: about 150,000 compounds; about 540 (0.36%) showed an effect of 50% or more. Some of the results follow.

Tested on: Plasmodium falciparum
Test: Primary screen in NF54 nanoGlo assay, in single point, at 2uM, 72h; a lower Z score goes with more inhibition
Assay type: functional, Erythrocyte
Conditions: timepoint 72 hour

SMILES | % Inhibition [%] | Z score
O=S(=O)(Nc1ccc(F)cc1OCCC(F)(F)F)C1CC1 | -11 | 1.07
Cc1cc(-n2cnnc2Cc2ccncc2)n(C)n1 | -16 | 2.95
CC(C)c1ccc(S(=O)(=O)N(CCCN2CCCC2=O)CC(=O)N2CCNCC2)cc1 | -8 | 0.78
COc1ccccc1-c1ccnc(-n2ncc(C(=O)NCC3(N4CCOCC4)CCCCC3)c2C)n1 | -6 | 0.86
CC(=O)N1CCN(C(=O)[C@@H]2CC3(CN(Cc4ccccc4)C3)CN2C)CC1 | -10 | 1.18
CN(C)[C@H]1CCCCN(Cc2ccccc2OCC(=O)N2CCCCC2)C1 | -6 | 1.27
CCC[C@@H](CNc1ncc(C)c(N(C)C)n1)N(C)C | 1 | -0.11
Cc1noc(C)c1S(=O)(=O)NCc1ccc(-c2ccoc2)cc1 | -1 | 0.1
COc1ccccc1OCC(=O)Nc1nc(-c2ccc(C)o2)ns1 | -11 | 1.38
Cc1cccc(C)c1[C@H](C)NCC(=O)Nc1cccnn1 | -6 | 1.07
CC1CCN([C@@H](CNC(=O)c2cccc(C(=O)O)c2)c2cccs2)CC1 | -7 | 0.95
CC[C@H]1COCCN1C(=O)c1n[nH]c2c1CN(C)CC2 | -3 | 0.48
CCc1cnc(C)nc1N1C[C@@H]2OC(=O)N(CCCN3CCOCC3)[C@@H]2C1 | -18 | 3.15
CCCN1CC[C@@H]2N(C(=O)c3ccc4c(c3)CCCN4)CCC[C@@]2(CO)C1 | -12 | 1.11
CC(C)Cc1cc(CNC(=O)Cc2cccnc2)on1 | -23 | 2.18
COc1ccc2cc1Oc1cccc(c1)CO[C@H]1CCN(C(=O)c3ccc(CO)cc3)C[C@H]1NC(=O)CC2 | -7 | 1.25
O=C1NCCN1CCn1ccnc1-c1cccc2nonc12 | -8 | 1.16
O=C1CN(C(=O)CN2CC3(CCCC3)c3cc(Br)ccc32)CCN1 | 2 | -0.39
CCN(CC)c1ccc(NC(=O)[C@@H]2CCCO2)cn1 | 5 | -0.69
C/C(=C\c1ccco1)[C@@H]1CC(=O)Nc2cc(N3CCCC3)c(C(N)=O)cc21 | -11 | 1.45
Cc1ccc(-c2nc(C3CCCC3)n(CCCO)n2)o1 | -27 | 3.4
c1cnc(N2C[C@H]3CCC[C@@H](C3)C2)nc1 | -10 | 1.33
COc1cc(N2C[C@@H](C(=O)N3CC(=O)Nc4ccccc43)CC2=O)cc(OC)c1OC | -6 | 0.89
CCc1ccc(-c2cc(C(=O)NCc3nnn[nH]3)[nH]n2)cc1 | -19 | 1.67
CN(C)C(=O)Cn1cnc(NS(=O)(=O)c2ccc3c(c2)CCCC3)n1 | -9 | 1.36
CC1(C)CC[C@H](NC(=O)CCN2C(=O)CCC2=O)c2ccccc21 | -8 | 0.69

SMILES | % Inhibition [%] | Z score
C[C@H]1CCN(c2cc(C(=O)N3CC(=O)Nc4ccccc43)ccn2)C1 | -5 | 0.91
O=C(NC1CCN(CC2=CCCCC2)CC1)c1ncccc1F | 1 | -0.1
Cc1ccc2c(c1C)OC[C@@H]2NC(=O)CCc1ccccc1C(=O)O | -18 | 1.82
Cc1cc(Br)cnc1NC(=O)C1C[C@@H]2CC(=O)[C@H]1C2 (some centres undefined) | -5 | 0.58
O=C1COc2ccc(S(=O)(=O)N3CCC[C@H](C(=O)N4CCc5ccccc5C4)C3)cc2N1 | 3 | -0.49
Cc1nc(CN2CCC[C@H]2C(=O)O)sc1C | 7 | -0.96
CCc1cc(N2CCC(N(C)Cc3noc(C)n3)CC2)nc(N(C)C)n1 | 1 | -0.06
CC(=O)N(Cc1nn(C)c2c1CN(S(=O)(=O)c1cc(C)ccc1C)CC2)c1ccccc1 | -3 | 0.51
Cc1ccc(OCCCC(=O)N2CCC[C@@H]2CN)cc1C | -21 | 2.46
CC(C)CS(=O)(=O)C1CN(C(=O)Cn2nnc3ccccc32)C1 | -15 | 1.94
CCn1nccc1C(=O)N1CCC2(CC1)N(Cc1cccc(F)c1)C(=O)C[S@+]2[O-] | 4 | -0.79
Cc1ccc(C(=O)c2oc3ccccc3c2NC(=O)c2c(C)noc2-c2ccc(Cl)cc2)cc1F | -3 | 0.42
CCc1nc(CNC(=O)c2ccc(C(F)F)c(F)c2)co1 | 9 | -1.6
CC(C)C[C@H](NC(=O)Cn1ncn(C)c1=O)C(C)(C)C | 2 | -0.2
CN1CCN([C@H]2CN(C(=O)c3ccc(-c4ccccc4)cc3)C[C@@H]2O)CC1 | 15 | -1.99
COCC1(C(=O)NCC2(N3CCOCC3)CCCCCC2)CCC1 | 1 | -0.23
CC(=O)c1cc(CN2CCO[C@H](C(=O)N(C)C)C2)n(C)c1 | -2 | 0.47
C[C@H](Nc1cccnc1C#N)C1CCN(CC(F)(F)F)CC1 | -7 | 1.46
CC(=O)N1CCC(N2CCN3C(=O)N(Cc4ccc(F)cc4)C[C@H]3C2)CC1 | 11 | -1.47
CCN(C)C(=O)c1cccc(C(=O)N[C@H]2CCN(c3ccccc3OC)C2=O)c1 | 1 | -0.12
Cc1cc(C(=O)N[C@H]2CCOC[C@@H]2OCc2ccccc2)c(C)n1C | 8 | -1.34
Cc1ccc(F)c(N[C@@H]2CCNC(=O)CC2)c1 | -12 | 1.76
Cc1cc(C2CCC2)nc(N2CC[C@H](NC(=O)c3cnccn3)[C@@H](O)C2)n1 | -8 | 1.16
CC[C@@H](Cn1ccnc1)NS(=O)(=O)c1c(C)noc1C | 0 | -0.03
CC1(C)CC(NS(C)(=O)=O)CC(C)(C)N1O | -15 | 2.14
Cn1cccc(C(=O)N[C@@H]2COCC[C@@H]2Oc2cccc(F)c2)c1=O | 7 | -1.11
